The source of these data is paper PMC12820563.

The other results are listed elsewhere or left out. The list includes weakly bound sequences.

This experiment concerns the target T1, MBP-FoxP3dN (UniProt Q99JB6).
T1 sequence: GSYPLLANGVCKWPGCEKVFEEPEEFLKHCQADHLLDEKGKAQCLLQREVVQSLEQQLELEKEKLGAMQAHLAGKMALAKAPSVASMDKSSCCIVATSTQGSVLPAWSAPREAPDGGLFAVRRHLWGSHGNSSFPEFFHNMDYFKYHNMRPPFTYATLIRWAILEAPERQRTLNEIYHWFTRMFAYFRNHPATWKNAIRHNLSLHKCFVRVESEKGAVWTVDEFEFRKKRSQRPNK
The experiment can be described thus: PD-seq (MBP pull-down with sequencing). The following applies: 20 mM Tris-HCl pH 7.5, 100 mM NaCl, 1.5 mM MgCl2, 0.4 uM protein, 0.1 uM dsDNA library, 30 min, room temperature, amylose pull-down; high values mean tight binding; double strand, one strand shown.
Consider “GATGATTGTTCTCCCAGCTGATGAATTGACCAGTTCGAGTAAACAAATTTTCCTAATCTTTCTGTTCAAGCGCCATCTAC”, for which the binding signal (RPM ratio (pull-down/input)) worked out at 0.256.

On to “GATGATTGTTCTCCCAGCTGATGAATTCTATGATTCGAGTAAACAAATTTTCCTAATCTTTCTGTTCAAGCGCCATCTAC”, for which the binding signal (RPM ratio (pull-down/input)) came out at 2.

Consider “GATGATTGTTCTCCCAGCTGATGAATTATCATAGTCGAGTAAACAAATTTTCCTAATCTTTCTGTTCAAGCGCCATCTAC”, for which the binding signal (RPM ratio (pull-down/input)) came to 0.336.

With “GATGATTGTTCTCCCAGCTGATGAATTTGTATTTTCGAGTAAACAAATTTTCCTAATCTTTCTGTTCAAGCGCCATCTAC”, the binding signal (RPM ratio (pull-down/input)) came out at 4.85.

Turning to “GATGATTGTTCTCCCAGCTGATGAATTAGTTACGTCGAGTAAACAAATTTTCCTAATCTTTCTGTTCAAGCGCCATCTAC”, the binding signal (RPM ratio (pull-down/input)) was 0.996.

With “GATGATTGTTCTCCCAGCTGATGAATTTCGAACATCGAGTAAACAAATTTTCCTAATCTTTCTGTTCAAGCGCCATCTAC”, the binding signal (RPM ratio (pull-down/input)) worked out at 0.442.

For the sequence “GATGATTGTTCTCCCAGCTGATGAATTCTTTTATTCGAGTAAACAAATTTTCCTAATCTTTCTGTTCAAGCGCCATCTAC”, the binding signal (RPM ratio (pull-down/input)) was determined as 0.35.

Take “GATGATTGTTCTCCCAGCTGATGAATTGTCTGAATCGAGTAAACAAATTTTCCTAATCTTTCTGTTCAAGCGCCATCTAC”: the binding signal (RPM ratio (pull-down/input)) is 0.252.

“GATGATTGTTCTCCCAGCTGATGAATTCGATCCATCGAGTAAACAAATTTTCCTAATCTTTCTGTTCAAGCGCCATCTAC”: the binding signal (RPM ratio (pull-down/input)) is 0.313.

With “GATGATTGTTCTCCCAGCTGATGAATTTCTCCAATCGAGTAAACAAATTTTCCTAATCTTTCTGTTCAAGCGCCATCTAC”, the binding signal (RPM ratio (pull-down/input)) is 0.202.

Consider “GATGATTGTTCTCCCAGCTGATGAATTTCGTAATTCGAGTAAACAAATTTTCCTAATCTTTCTGTTCAAGCGCCATCTAC”, for which the binding signal (RPM ratio (pull-down/input)) stood at 1.12.

On to “GATGATTGTTCTCCCAGCTGATGAATTTCGATTCTCGAGTAAACAAATTTTCCTAATCTTTCTGTTCAAGCGCCATCTAC”, for which the binding signal (RPM ratio (pull-down/input)) was found to be 0.907.

Regarding “GATGATTGTTCTCCCAGCTGATGAATTTCCCGGGTCGAGTAAACAAATTTTCCTAATCTTTCTGTTCAAGCGCCATCTAC”, the binding signal (RPM ratio (pull-down/input)) was determined as 0.138.

For “GATGATTGTTCTCCCAGCTGATGAATTTGTACAGTCGAGTAAACAAATTTTCCTAATCTTTCTGTTCAAGCGCCATCTAC”, the binding signal (RPM ratio (pull-down/input)) was found to be 1.3.

“GATGATTGTTCTCCCAGCTGATGAATTTTAACAGTCGAGTAAACAAATTTTCCTAATCTTTCTGTTCAAGCGCCATCTAC”: the binding signal (RPM ratio (pull-down/input)) was 0.28.

Take “GATGATTGTTCTCCCAGCTGATGAATTGTTTGGATCGAGTAAACAAATTTTCCTAATCTTTCTGTTCAAGCGCCATCTAC”: the binding signal (RPM ratio (pull-down/input)) was found to be 3.7.

Regarding “GATGATTGTTCTCCCAGCTGATGAATTATAACCATCGAGTAAACAAATTTTCCTAATCTTTCTGTTCAAGCGCCATCTAC”, the binding signal (RPM ratio (pull-down/input)) was 0.463.

As for “GATGATTGTTCTCCCAGCTGATGAATTCACATTGTCGAGTAAACAAATTTTCCTAATCTTTCTGTTCAAGCGCCATCTAC”, the binding signal (RPM ratio (pull-down/input)) stood at 0.493.

Turning to “GATGATTGTTCTCCCAGCTGATGAATTCTTCAATTCGAGTAAACAAATTTTCCTAATCTTTCTGTTCAAGCGCCATCTAC”, the binding signal (RPM ratio (pull-down/input)) was 0.256.

Consider “GATGATTGTTCTCCCAGCTGATGAATTTCATCGATCGAGTAAACAAATTTTCCTAATCTTTCTGTTCAAGCGCCATCTAC”, for which the binding signal (RPM ratio (pull-down/input)) came to 0.393.

In the case of “GATGATTGTTCTCCCAGCTGATGAATTTGATCCGTCGAGTAAACAAATTTTCCTAATCTTTCTGTTCAAGCGCCATCTAC”, the binding signal (RPM ratio (pull-down/input)) was found to be 0.335.

“GATGATTGTTCTCCCAGCTGATGAATTCAGGCACTCGAGTAAACAAATTTTCCTAATCTTTCTGTTCAAGCGCCATCTAC”: the binding signal (RPM ratio (pull-down/input)) was determined as 0.479.

For “GATGATTGTTCTCCCAGCTGATGAATTTATCGACTCGAGTAAACAAATTTTCCTAATCTTTCTGTTCAAGCGCCATCTAC”, the binding signal (RPM ratio (pull-down/input)) was determined as 0.548.

As for “GATGATTGTTCTCCCAGCTGATGAATTTAAGATATCGAGTAAACAAATTTTCCTAATCTTTCTGTTCAAGCGCCATCTAC”, the binding signal (RPM ratio (pull-down/input)) came to 0.347.

“GATGATTGTTCTCCCAGCTGATGAATTGTCCATATCGAGTAAACAAATTTTCCTAATCTTTCTGTTCAAGCGCCATCTAC”: the binding signal (RPM ratio (pull-down/input)) amounted to 0.473.

“GATGATTGTTCTCCCAGCTGATGAATTTTTATGTTCGAGTAAACAAATTTTCCTAATCTTTCTGTTCAAGCGCCATCTAC”: the binding signal (RPM ratio (pull-down/input)) was found to be 0.471.

On to “GATGATTGTTCTCCCAGCTGATGAATTTTATAACTCGAGTAAACAAATTTTCCTAATCTTTCTGTTCAAGCGCCATCTAC”, for which the binding signal (RPM ratio (pull-down/input)) is 0.381.

Turning to “GATGATTGTTCTCCCAGCTGATGAATTGCGAACTTCGAGTAAACAAATTTTCCTAATCTTTCTGTTCAAGCGCCATCTAC”, the binding signal (RPM ratio (pull-down/input)) came to 0.549.

Regarding “GATGATTGTTCTCCCAGCTGATGAATTTAGCTGCTCGAGTAAACAAATTTTCCTAATCTTTCTGTTCAAGCGCCATCTAC”, the binding signal (RPM ratio (pull-down/input)) came to 0.751.

For “GATGATTGTTCTCCCAGCTGATGAATTGTTCGCGTCGAGTAAACAAATTTTCCTAATCTTTCTGTTCAAGCGCCATCTAC”, the binding signal (RPM ratio (pull-down/input)) was 0.503.

For the sequence “GATGATTGTTCTCCCAGCTGATGAATTAATATTATCGAGTAAACAAATTTTCCTAATCTTTCTGTTCAAGCGCCATCTAC”, the binding signal (RPM ratio (pull-down/input)) was 0.787.

“GATGATTGTTCTCCCAGCTGATGAATTTACTAAATCGAGTAAACAAATTTTCCTAATCTTTCTGTTCAAGCGCCATCTAC”: the binding signal (RPM ratio (pull-down/input)) came out at 0.365.

“GATGATTGTTCTCCCAGCTGATGAATTATGAACCTCGAGTAAACAAATTTTCCTAATCTTTCTGTTCAAGCGCCATCTAC”: the binding signal (RPM ratio (pull-down/input)) is 0.381.

For “GATGATTGTTCTCCCAGCTGATGAATTAGGGTTGTCGAGTAAACAAATTTTCCTAATCTTTCTGTTCAAGCGCCATCTAC”, the binding signal (RPM ratio (pull-down/input)) came to 1.08.

As for “GATGATTGTTCTCCCAGCTGATGAATTCAATCGTTCGAGTAAACAAATTTTCCTAATCTTTCTGTTCAAGCGCCATCTAC”, the binding signal (RPM ratio (pull-down/input)) stood at 0.554.

Take “GATGATTGTTCTCCCAGCTGATGAATTATCTAGTTCGAGTAAACAAATTTTCCTAATCTTTCTGTTCAAGCGCCATCTAC”: the binding signal (RPM ratio (pull-down/input)) came to 0.333.

Regarding “GATGATTGTTCTCCCAGCTGATGAATTTACTCAGTCGAGTAAACAAATTTTCCTAATCTTTCTGTTCAAGCGCCATCTAC”, the binding signal (RPM ratio (pull-down/input)) turned out to be 0.286.

For the sequence “GATGATTGTTCTCCCAGCTGATGAATTTCATATTTCGAGTAAACAAATTTTCCTAATCTTTCTGTTCAAGCGCCATCTAC”, the binding signal (RPM ratio (pull-down/input)) is 0.658.

In the case of “GATGATTGTTCTCCCAGCTGATGAATTGCAATCCTCGAGTAAACAAATTTTCCTAATCTTTCTGTTCAAGCGCCATCTAC”, the binding signal (RPM ratio (pull-down/input)) worked out at 1.41.

Turning to “GATGATTGTTCTCCCAGCTGATGAATTAACATTCTCGAGTAAACAAATTTTCCTAATCTTTCTGTTCAAGCGCCATCTAC”, the binding signal (RPM ratio (pull-down/input)) came to 0.489.
